{"source": "patent US20260000764A1", "about": "(CITY OF HOPE, published 2026)", "binders": {"B1": {"name": "Human IL-13 wild type, soluble recombinant protein with C-terminal hexahistidine tag (ligand)", "chain": "not shown", "notes": "Soluble cytokine used in SPR and in the signalling assays; also called IL13 WT; WT"}}, "key": {"[1]": {"target": "T1, Biotinylated recombinant human IL-13Rα1 ectodomain with C-terminal biotin acceptor peptide and hexahistidine … (human, UniProt P78552 22-343, biotin on the biotin acceptor peptide (coexpressed with BirA ligase))", "T1 construct": "extracellular domain; also called recombinant IL13Rα1; biotinylated IL13Rα1", "T1 sequence": "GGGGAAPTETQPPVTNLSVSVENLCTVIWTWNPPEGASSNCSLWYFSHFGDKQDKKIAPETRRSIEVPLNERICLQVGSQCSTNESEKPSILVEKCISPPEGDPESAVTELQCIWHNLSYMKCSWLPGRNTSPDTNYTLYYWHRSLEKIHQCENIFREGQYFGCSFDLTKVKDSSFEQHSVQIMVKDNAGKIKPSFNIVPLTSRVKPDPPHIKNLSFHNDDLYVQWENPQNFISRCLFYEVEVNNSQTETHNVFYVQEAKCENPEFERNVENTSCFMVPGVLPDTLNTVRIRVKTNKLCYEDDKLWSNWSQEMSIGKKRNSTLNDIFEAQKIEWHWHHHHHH", "test": "SPR (Biacore T100), biotinylated IL-13Rα1 captured on SA chip, IL-13 flowed, 1:1 Langmuir fit", "description": "(§1) SPR experiments were conducted on a Biacore T100 instrument using a Biacore SA sensor chip (GE Healthcare). Biotinylated IL-13Rα1/IL-13Rα2 was captured at a low density (50-100 response units (RU)) and kinetics measurements were conducted at 30 μL/min. An unrelated biotinylated protein was immobilized as a reference surface for the SA sensor chip with matching RU to the experimental surface. All measurements were made using 3-fold serial dilutions of IL-13 agonists in the running buffer (1×HBS-P, 0.1% BSA). The IL-13Rα1/IL-13Rα2 bound to the chip surface was regenerated with 7 mM glycine (pH 3.0) and 250 mM NaCl. Kinetic parameters were determined using 120 s to 190 s of IL-13 agonist association time and 20 s to 1200 s dissociation time. All data fitting was performed using the Biacore T100 evaluation software version 2.0 with a 1:1 Langmuir binding model."}, "[2]": {"target": "T2, Biotinylated recombinant human IL-13Rα2 ectodomain with C-terminal biotin acceptor peptide and hexahistidine … (human, UniProt Q14627 27-343, biotin on the biotin acceptor peptide (coexpressed with BirA ligase))", "T2 construct": "extracellular domain; also called recombinant IL13Rα2; biotinylated IL13Rα2", "T2 sequence": "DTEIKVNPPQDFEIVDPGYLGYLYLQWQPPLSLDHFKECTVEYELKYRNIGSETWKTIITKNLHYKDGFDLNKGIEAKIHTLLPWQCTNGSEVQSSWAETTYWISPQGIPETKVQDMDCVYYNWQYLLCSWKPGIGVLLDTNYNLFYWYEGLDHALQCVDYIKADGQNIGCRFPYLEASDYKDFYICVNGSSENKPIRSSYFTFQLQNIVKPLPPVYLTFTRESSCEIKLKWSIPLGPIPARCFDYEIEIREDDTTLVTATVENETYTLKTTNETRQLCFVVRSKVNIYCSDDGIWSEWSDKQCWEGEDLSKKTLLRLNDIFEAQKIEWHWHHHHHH", "test": "SPR, IL-13Rα2 immobilized on the chip, IL-13 flowed; panel titled IL-13/IL-13Rα2", "source_text": "(§2) FIG. 2A-2F: IL-13Rα1 and IL-13Rα2 binding affinities of the IL-13 variant. (A-C) Surface plasmon resonance measurements of IL-13, IL-13 D7 and IL-13 C4 for IL-13Rα1. IL-13Rα1 was immobilized on the surface of the chip and the indicated doses of IL-13 or the two IL-13 mutants were flowed. (D-F) Surface plasmon resonance measurements of IL-13,IL-13 D7 and IL-13 C4 for IL-13Rα2. IL-13Rα2 was immobilized on the surface of the chip and the indicated doses of IL-13 or the two IL-13 mutants were flowed.\nas §1"}, "[3]": {"target": "T2, Biotinylated recombinant human IL-13Rα2 …", "test": "SPR (Biacore T100), biotinylated IL-13Rα2 captured on SA chip, IL-13 flowed, 1:1 Langmuir fit", "description": "as §1"}, "[4]": {"target": "T1, Biotinylated recombinant human IL-13Rα1 …", "test": "SPR, IL-13Rα1 immobilized on the chip, IL-13 flowed; panel titled IL-13/IL-13Rα1", "source_text": "as §2, §1"}, "[5]": {"target": "T1, Biotinylated recombinant human IL-13Rα1 …", "test": "SPR; ratio column of the drawn table, IL13Rα1", "source_text": "as §2, §1"}, "[6]": {"target": "T2, Biotinylated recombinant human IL-13Rα2 …", "test": "SPR; ratio column of the drawn table, IL13Rα2", "source_text": "as §2, §1"}}}
{"binder": "B1", "values": [{"measurement": "Kd", "setting": "[1]", "result": 4.38, "unit": "nM"}, {"measurement": "koff", "setting": "[1]", "result": 0.022, "unit": "s⁻¹"}, {"measurement": "kon", "setting": "[1]", "result": "5.21e+06", "unit": "M⁻¹ s⁻¹"}, {"measurement": "koff", "setting": "[2]", "result": "8.4e-05", "unit": "s⁻¹"}, {"measurement": "kon", "setting": "[2]", "result": "5e+07", "unit": "M⁻¹ s⁻¹"}, {"measurement": "koff", "setting": "[3]", "result": "8.4e-05", "unit": "s⁻¹"}, {"measurement": "kon", "setting": "[3]", "result": "5e+07", "unit": "M⁻¹ s⁻¹"}, {"measurement": "Kd", "setting": "[4]", "result": 4.38, "unit": "nM"}, {"measurement": "koff", "setting": "[4]", "result": 0.022, "unit": "s⁻¹"}, {"measurement": "kon", "setting": "[4]", "result": "5.21e+06", "unit": "M⁻¹ s⁻¹"}, {"measurement": "KDwt/KD mut", "setting": "[5]", "result": 1}, {"measurement": "KDwt/KD mut", "setting": "[6]", "result": 1}]}
